# Inconclusive means that the source gave no clear call. Such entries were picked first, then a sample of the others. For part of these data: No potency is given beside an inconclusive call; the fits are too rough. Active and inactive are the calls of the source. The call rests on the fitted dose curve; in most records, active means well fitted curve in the direction sought with a large enough effect; inconclusive means small, poorly fitted or top-dose-only effect, or another doubt; inactive means no such curve, though single readings can be large; an effect the other way counts as inactive or inconclusive.
# Biological target: Endonuclease 4 (Escherichia coli (strain K12)) (UniProt P0A6C1)
# Test: Counterscreen for APE1 Inhibitors: qHTS Validation Assay for Inhibitors of Endonuclease IV (AID 1708)
# Settings: E. coli endonuclease IV, DNA cleavage fluorescence; series mostly up to 57.1 µM
# In short: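 Concentration-response counterscreen run identically to the APE1 assay: 15 min room-temperature preincubation of 2 nM enzyme with compound, reaction started with 50 nM quenched abasic DNA, progress taken from kinetic fluorescence.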
# Potency means the concentration at half of the fitted maximal effect; tags describe the fitted curve by direction and shape.
row,Compound,Potency
1,NC1(C(=O)O)CC1,inactive
2,CCCN(CCc1ccccc1)C1CCc2c(O)cccc2C1 (configuration not stated),"inconclusive [inhibitor, partial curve, poor fit]"
3,CC(N)=NCc1cccc(CN)c1,inactive

# Biological target: Dual specificity protein kinase CLK4 (Homo sapiens) (UniProt Q9HAZ1)
# Sequence of UniProt Q9HAZ1 (Q9HAZ1 whole entry, looked up): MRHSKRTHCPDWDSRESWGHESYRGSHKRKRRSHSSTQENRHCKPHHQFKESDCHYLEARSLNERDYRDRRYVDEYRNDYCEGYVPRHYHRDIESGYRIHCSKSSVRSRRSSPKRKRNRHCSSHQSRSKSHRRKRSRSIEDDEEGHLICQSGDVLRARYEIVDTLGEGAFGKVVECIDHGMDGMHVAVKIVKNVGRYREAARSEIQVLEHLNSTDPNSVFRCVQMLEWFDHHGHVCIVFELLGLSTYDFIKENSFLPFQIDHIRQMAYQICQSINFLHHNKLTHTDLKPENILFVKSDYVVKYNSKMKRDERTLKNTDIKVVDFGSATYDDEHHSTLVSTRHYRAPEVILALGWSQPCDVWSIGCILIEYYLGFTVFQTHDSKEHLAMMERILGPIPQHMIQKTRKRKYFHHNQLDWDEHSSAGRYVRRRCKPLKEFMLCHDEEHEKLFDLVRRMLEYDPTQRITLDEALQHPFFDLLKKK
# Test: qHTS Assay for Inhibitors of CDC-like Kinase 4 (Kinase-Glo Assay) (AID 1770); further: nearly all actives have a fitted effect of over 65% in size
# Settings: recombinant Clk4, Kinase-Glo ATP depletion luminescence; series mostly up to 66.7 µM
# In short: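 Readout: Kinase-Glo luminescence from ATP left after a 4.5 h room-temperature reaction of 25 nM Clk4 with 100 uM RS peptide and 1 uM ATP (final). Buffer: 25 mM Tris pH 7.5, 10 mM MgCl2.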
row,Compound,Potency
1,COCCn1c(=O)c(CCc2ccccc2)nc2cncnc21,inactive
2,COc1ccc(-c2nc3cnc(OC)nc3n(CCC#N)c2=O)cc1,inactive
3,COc1ccc(CNc2nc(-c3cccnc3)nc3ccccc23)c(OC)c1,"inconclusive [falling, partial curve]"
4,CCNc1ncc2nc(-c3cccs3)c(=O)n(CCC#N)c2n1,"inconclusive [falling, single point]"

# Biological target: Dual specificity protein kinase CLK4 (Homo sapiens) (UniProt Q9HAZ1)
# Test: qHTS Assay for Inhibitors of CDC-like Kinase 4 (ADP-Glo Assay) (AID 1771); further: nearly all actives have a fitted effect of over 70% in size
# Settings: recombinant CLK4, ADP-Glo luminescence; series mostly up to 80 µM
# In short: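 25 nM Clk4 with 100 uM RS repeat peptide and 1 uM ATP (final) in buffer with 2 mM MgCl2, 0.5 mM EGTA, 2.5 mM DTT, 0.01% Triton X-100; 1 h at room temperature; ADP-Glo luminescence for ADP formed.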
row,Compound,Potency
1,O=c1c(-c2cccs2)nc2cnc(Nc3ccccc3)nc2n1C[C@H]1CCCO1,"inconclusive [falling, partial curve]"
2,COc1ccc(-n2c(=O)c(-c3ccc(Cl)cc3)nc3cnc(N(C)C)nc32)cc1,inactive
3,COc1ccc(CNc2nc(-c3cccnc3)nc3ccccc23)c(OC)c1,"inconclusive [falling, partial curve]"

# Test system: not listed separately
# Test: qHTS for differential inhibitors of proliferation of Plasmodium falciparum line GB4 (AID 1816);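 further: parasite growth measured after 72 h incubation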
# Settings: Potency: Plasmodium falciparum GB4 proliferation inhibition; series mostly up to 28.7 µM
row,Compound,Potency
1,NC1(C(=O)O)CC1,"inconclusive [inhibitor, single point]"
2,N=C(N)c1ccc(N)cc1,"inconclusive [inhibitor, partial curve]"
3,CC(N)=NCc1cccc(CN)c1,"inconclusive [inhibitor, partial curve, poor fit]"

# Test system: not listed separately
# Test: qHTS for differential inhibitors of proliferation of Plasmodium falciparum line W2 (AID 1883);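 further: parasites grown with compound for 72 h before lysis and staining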
# Settings: Potency: Plasmodium falciparum W2 proliferation inhibition; series mostly up to 28.7 µM
row,Compound,Potency
1,NC1(C(=O)O)CC1,active: 12.6 µM
2,CCCN(CCc1ccccc1)C1CCc2c(O)cccc2C1 (configuration not stated),active: 1 µM
3,CC(N)=NCc1cccc(CN)c1,"inconclusive [inhibitor, full curve, poor fit]"

# Biological target: RecQ-like DNA helicase BLM (Homo sapiens) (UniProt P54132)
# Sequence of UniProt P54132 (P54132 whole entry, looked up): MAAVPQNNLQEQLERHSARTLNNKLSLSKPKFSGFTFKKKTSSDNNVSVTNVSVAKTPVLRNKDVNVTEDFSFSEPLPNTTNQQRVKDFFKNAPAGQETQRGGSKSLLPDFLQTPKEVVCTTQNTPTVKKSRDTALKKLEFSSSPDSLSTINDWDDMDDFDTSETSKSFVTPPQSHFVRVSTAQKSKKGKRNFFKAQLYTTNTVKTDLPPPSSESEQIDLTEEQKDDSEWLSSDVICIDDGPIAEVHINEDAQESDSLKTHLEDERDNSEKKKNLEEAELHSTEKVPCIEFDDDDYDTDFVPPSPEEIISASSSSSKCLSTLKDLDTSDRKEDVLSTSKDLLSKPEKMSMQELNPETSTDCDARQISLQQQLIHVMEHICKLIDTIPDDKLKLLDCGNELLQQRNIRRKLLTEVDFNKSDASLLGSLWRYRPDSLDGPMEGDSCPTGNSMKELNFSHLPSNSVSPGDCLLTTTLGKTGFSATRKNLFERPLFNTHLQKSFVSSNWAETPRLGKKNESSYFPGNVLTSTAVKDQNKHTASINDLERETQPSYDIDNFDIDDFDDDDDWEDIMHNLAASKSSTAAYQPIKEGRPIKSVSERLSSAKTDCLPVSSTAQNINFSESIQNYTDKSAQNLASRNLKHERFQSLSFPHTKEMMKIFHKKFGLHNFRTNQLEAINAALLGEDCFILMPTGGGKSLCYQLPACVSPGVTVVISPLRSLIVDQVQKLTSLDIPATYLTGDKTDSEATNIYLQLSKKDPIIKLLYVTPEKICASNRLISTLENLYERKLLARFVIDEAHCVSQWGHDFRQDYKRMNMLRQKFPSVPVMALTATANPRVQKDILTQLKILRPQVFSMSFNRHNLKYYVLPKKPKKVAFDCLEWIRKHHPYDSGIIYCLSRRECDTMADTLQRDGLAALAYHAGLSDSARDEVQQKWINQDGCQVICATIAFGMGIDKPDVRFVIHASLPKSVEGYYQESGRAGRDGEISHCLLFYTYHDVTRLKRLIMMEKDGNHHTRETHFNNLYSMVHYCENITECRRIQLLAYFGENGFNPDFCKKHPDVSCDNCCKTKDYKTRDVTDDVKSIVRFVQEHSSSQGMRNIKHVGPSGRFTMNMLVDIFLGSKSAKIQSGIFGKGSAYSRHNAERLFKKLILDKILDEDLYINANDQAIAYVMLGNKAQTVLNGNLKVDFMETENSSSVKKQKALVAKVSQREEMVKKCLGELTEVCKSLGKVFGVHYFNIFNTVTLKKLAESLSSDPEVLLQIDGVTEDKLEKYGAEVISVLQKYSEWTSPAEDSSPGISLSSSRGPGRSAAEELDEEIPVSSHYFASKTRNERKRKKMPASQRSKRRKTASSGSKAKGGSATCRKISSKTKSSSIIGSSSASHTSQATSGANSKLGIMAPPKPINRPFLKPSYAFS
# Test: qHTS Validation Assay for Inhibitors of Bloom's syndrome helicase (BLM) (AID 2364)
# Settings: BLM helicase DNA unwinding, fluorescence, in vitro; series mostly up to 57.1 µM
# In short: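 BLM 50 nM in 25 mM Tris-HCl pH 8.0, 5 mM NaCl, 2 mM MgCl2, 1 mM DTT, 0.01% Tween-20, 2.5 ug/ml poly(dI-dC); 15 min cpd preinc, RT. Start: 200 nM forked DNA + 2 mM ATP (final). TAMRA read, 2 reads 2 h apart.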
row,Compound,Potency
1,NC1(C(=O)O)CC1,"inconclusive [inhibitor, full curve, poor fit]"
2,N=C(N)c1ccc(N)cc1,inactive
3,CCCN(CCc1ccccc1)C1CCc2c(O)cccc2C1 (configuration not stated),inactive
4,CC(N)=NCc1cccc(CN)c1,inactive

# Biological target: ATP-dependent 6-phosphofructokinase (Trypanosoma brucei brucei) (UniProt O15648)
# Sequence of UniProt O15648 (O15648 whole entry, looked up): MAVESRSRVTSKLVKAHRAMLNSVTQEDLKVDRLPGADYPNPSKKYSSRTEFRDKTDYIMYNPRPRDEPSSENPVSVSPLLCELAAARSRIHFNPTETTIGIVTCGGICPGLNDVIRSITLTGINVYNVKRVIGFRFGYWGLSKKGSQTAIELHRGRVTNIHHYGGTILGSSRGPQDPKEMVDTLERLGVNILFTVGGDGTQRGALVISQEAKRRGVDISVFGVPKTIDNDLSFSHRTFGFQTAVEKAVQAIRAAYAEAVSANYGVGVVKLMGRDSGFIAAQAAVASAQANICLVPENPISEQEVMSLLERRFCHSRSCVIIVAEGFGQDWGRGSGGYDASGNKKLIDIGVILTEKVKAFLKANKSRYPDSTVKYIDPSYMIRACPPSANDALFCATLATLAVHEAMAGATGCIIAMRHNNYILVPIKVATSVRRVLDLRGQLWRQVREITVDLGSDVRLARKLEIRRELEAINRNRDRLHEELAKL
# Test: qHTS Validation Assay to Find Inhibitors of T. brucei phosphofructokinase (AID 485368)
# Settings: T. brucei PFK enzyme assay, qHTS 7-point titration; series mostly up to 57.5 µM
# In short: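 Steps: substrate mix (0.5 mM F6P, 0.1 mM ATP, MgCl2, TEA pH 8.0); compound; 1.25 nM T. brucei PFK; 45 min RT; ATP depletion 10 min; ADP-to-ATP detection 10 min; luminescence read; curve fitting and classification.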
row,Compound,Potency
1,NC1(C(=O)O)CC1,"inconclusive [falling, single point]"
2,N=C(N)c1ccc(N)cc1,inactive
3,CCCN(CCc1ccccc1)C1CCc2c(O)cccc2C1 (configuration not stated),inactive

# Test system: not listed separately
# Test: Quantitative high throughput screen for delayed death inhibitors of the malarial parasite plastid, 96 hour incubation (AID 488745); further: nearly all actives have a fitted effect of over 70% in size
# Settings: Plasmodium falciparum growth; series mostly up to 28.7 µM
# In short: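 Luciferase-expressing P. falciparum in erythrocytes (2% hematocrit, 0.1% parasitemia) incubated with compound for 96 h at 37 C, 5% CO2, in RPMI 1640 with 0.5% Albumax. Growth inhibition read as decreased luminescence.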
row,Compound,Potency
1,NC1(C(=O)O)CC1,inactive
2,CCCN(CCc1ccccc1)C1CCc2c(O)cccc2C1 (configuration not stated),active: 3.29 µM
3,CC(N)=NCc1cccc(CN)c1,inactive

# Biological target: Ubiquitin carboxyl-terminal hydrolase 1 (Homo sapiens) (UniProt O94782)
# Sequence of UniProt O94782 (O94782 whole entry, looked up): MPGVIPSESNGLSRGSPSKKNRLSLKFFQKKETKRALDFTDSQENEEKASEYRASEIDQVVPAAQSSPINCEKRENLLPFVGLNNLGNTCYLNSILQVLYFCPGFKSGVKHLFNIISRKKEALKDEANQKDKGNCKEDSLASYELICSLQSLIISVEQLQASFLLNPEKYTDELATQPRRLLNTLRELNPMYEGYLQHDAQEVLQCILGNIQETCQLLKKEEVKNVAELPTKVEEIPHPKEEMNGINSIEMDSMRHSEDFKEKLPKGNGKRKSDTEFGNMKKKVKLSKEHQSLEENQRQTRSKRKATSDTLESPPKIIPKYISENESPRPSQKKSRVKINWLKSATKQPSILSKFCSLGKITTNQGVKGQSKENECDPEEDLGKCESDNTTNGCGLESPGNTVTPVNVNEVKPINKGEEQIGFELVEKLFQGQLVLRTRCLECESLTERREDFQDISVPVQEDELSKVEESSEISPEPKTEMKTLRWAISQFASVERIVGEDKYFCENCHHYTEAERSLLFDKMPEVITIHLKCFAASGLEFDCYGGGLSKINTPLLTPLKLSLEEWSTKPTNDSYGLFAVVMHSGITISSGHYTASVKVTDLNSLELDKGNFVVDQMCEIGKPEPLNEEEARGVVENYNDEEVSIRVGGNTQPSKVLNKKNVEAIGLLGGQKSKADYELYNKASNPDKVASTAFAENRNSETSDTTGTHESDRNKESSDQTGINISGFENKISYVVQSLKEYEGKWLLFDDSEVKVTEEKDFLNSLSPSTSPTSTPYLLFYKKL
# Test: Inhibitors of USP1/UAF1: Pilot qHTS (AID 504865);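 further: rhodamine fluorescence freed from ubiquitin-rhodamine substrate followed over time; nearly all actives have a fitted effect of over 35% in size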
# Settings: purified USP1/UAF1, Ub-rhodamine cleavage fluorescence; series mostly up to 54.9 µM
# In short: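 1nM USP1/UAF1 + cpd, 15 min RT; start w/ Ub-Rho 150nM final; kinetic FL 480/540 nm, 6 reads q60 s. Buffer 50mM HEPES pH 7.8, 0.5mM EDTA, 1mM TCEP, 0.01% Tween-20, 0.1 mg/ml BSA.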
row,Compound,Potency
1,N=C(N)c1ccc(N)cc1,inactive
2,c1ccc(CNc2ccnc(-c3ccc4c(c3)OCO4)n2)cc1,"inconclusive [inhibitor, partial curve, poor fit]"
3,O=c1c(-c2cccs2)nc2cnc(Nc3ccccc3)nc2n1C[C@H]1CCCO1,inactive
4,CCCN(CCc1ccccc1)C1CCc2c(O)cccc2C1 (configuration not stated),inactive
5,COc1cccc(-c2nc(Nc3ccncc3)c3ccccc3n2)c1,active: 39.8 µM
6,CCNc1ncc2nc(-c3cccs3)c(=O)n(CCC#N)c2n1,"inconclusive [inhibitor, single point]"

# Test system: not listed separately
# Test: Primary qHTS for small molecule stabilizers of the endoplasmic reticulum resident proteome: Secreted ER Calcium Modulated Protein (SERCaMP) assay (AID 1508630)
# Settings: SH-SY5Y GLuc-SERCaMP (Gaussia luciferase released on ER calcium loss) secretion, thapsigargin, luminescence; series mostly up to 38.4 µM
# In short: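 GLuc-SERCaMP-expressing SH-SY5Y cells, pretreated 16 h with compound, are challenged with thapsigargin to empty ER calcium stores; after 4 h, coelenterazine is added directly to the medium and luminescence is imaged.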
row,Compound,Potency
1,O=C(Nc1ccccc1)N1CCC2(CC1)CCN(C(=O)c1ccncc1)CC2,inactive
2,O=C(c1ccco1)N1CCC2(CCCN(c3ccccc3)C2)CC1,inactive
3,COCC(=O)N1CCC2(CCCN(c3ccccn3)C2)CC1,inactive
4,COc1ncc2nc(-c3cc(F)cc(F)c3)c(=O)n(Cc3cccs3)c2n1,inactive
5,COCCn1c(=O)c(CCc2ccccc2)nc2cncnc21,"inconclusive [inhibitor, single point]"
6,NC1(C(=O)O)CC1,"inconclusive [inhibitor, partial curve, poor fit]"
7,CC(=O)NCCNc1ncncc1-c1ccccc1CN(C)C,inactive
8,O=C(c1ccco1)N1CCC2(CC1)CN(c1cccc(-c3ccccc3)c1)C2,"inconclusive [inhibitor, single point]"
9,CC(C)c1cccc(O)c(=O)c1,"inconclusive [inhibitor, partial curve, poor fit]"
10,O=C(Nc1cccc(F)c1)N1CCC2(CC1)CCN(C(=O)c1ccncc1)CC2,inactive
11,O=c1c(-c2ccc(F)c(F)c2)nc2cncnc2n1Cc1ccc(F)cc1,inactive
12,N=C(N)c1ccc(N)cc1,"inconclusive [inhibitor, partial curve, poor fit]"
13,O=C(c1cccc(F)c1)N1CCC[C@@]2(CCN(C(c3ccccc3)c3ccccc3)C2)C1,"inconclusive [inhibitor, partial curve, poor fit]"
14,c1ccc(CNc2ccnc(-c3ccc4c(c3)OCO4)n2)cc1,inactive
15,Cc1noc(C)c1C(=O)N1CCC2(CC1)CN(c1cccc(-c3ccccc3)c1)C2,"inconclusive [inhibitor, single point]"
16,Cc1cnc(CNc2ncncc2-c2cccc(NS(C)(=O)=O)c2)cn1,inactive
17,O=c1c(-c2cccs2)nc2cnc(Nc3ccccc3)nc2n1C[C@H]1CCCO1,inactive
18,O=C(c1ccco1)N1CCC2(CCCN(c3ncccn3)C2)CC1,inactive
19,COCCn1c(=O)c(-c2cc(F)cc(F)c2)nc2cnc(OC)nc21,"inconclusive [inhibitor, partial curve, poor fit]"
20,O=C(c1cnccn1)N1CCC2(CC1)CN(Cc1nccs1)C2,inactive

row,Compound,Potency
1,Cn1c(=O)c(-c2cc(F)cc(F)c2)nc2cnc(Oc3cccc(Cl)c3)nc21,inactive
2,COc1ccc(-c2nc3cnc(OC)nc3n(CCC#N)c2=O)cc1,inactive
3,O=c1c(-c2cccc(F)c2)nc2cncnc2n1Cc1ccc(F)cc1,"inconclusive [inhibitor, single point]"
4,CCCN(CCc1ccccc1)C1CCc2c(O)cccc2C1 (configuration not stated),"inconclusive [inhibitor, single point]"
5,COc1cccc(-c2nc(Nc3ccncc3)c3ccccc3n2)c1,"inconclusive [inhibitor, partial curve, poor fit]"
6,CCC(=O)N[C@@H]1CCc2cccc(OC)c2C1,inactive
7,CN(C)c1ncc2ncc(=O)n(Cc3cccs3)c2n1,"inconclusive [inhibitor, single point]"
8,CC(=O)N1CCC2(CCCN(c3ccc(-c4ccccc4)cc3)C2)CC1,"inconclusive [inhibitor, single point]"
9,COc1ccc(C(=O)N2CCC3(CC2)CN(c2ccncc2)C3)cc1,inactive
10,N#CCCn1c(=O)c(-c2ccccc2)nc2cnc(Oc3cccc(Cl)c3)nc21,"inconclusive [inhibitor, single point]"
11,COc1ccc(-c2nc3cnc(N4CCOCC4)nc3n(-c3ccccc3)c2=O)cc1,inactive
12,COc1ccc(-n2c(=O)c(-c3ccc(Cl)cc3)nc3cnc(N(C)C)nc32)cc1,inactive
13,CN(C)c1ncc2nc(-c3ccc(F)cc3)c(=O)n(-c3ccccc3)c2n1,inactive
14,Cc1noc(C)c1C(=O)N1CCC[C@@]2(CCN(Cc3nccs3)C2)C1,inactive
15,O=C(c1cnccn1)N1CCC[C@@]2(CCN(c3cccc(-c4ccccc4)c3)C2)C1,"inconclusive [inhibitor, single point]"
16,COc1ccc(CNc2nc(-c3cccnc3)nc3ccccc23)c(OC)c1,"inconclusive [inhibitor, single point]"
17,O=C(Nc1cccc(F)c1)N1CC[C@@]2(CCCN(C(=O)c3ccncc3)C2)C1,inactive
18,CCNc1ncc2nc(-c3cccs3)c(=O)n(CCC#N)c2n1,"inconclusive [inhibitor, single point]"
19,COc1ccccc1CNc1ncncc1-c1ccccc1Cl,"inconclusive [inhibitor, single point]"
20,CC(N)=NCc1cccc(CN)c1,"inconclusive [inhibitor, partial curve, poor fit]"
